Reference: the supplement of paper PMC4604168 (melanoma cell lines)
The list shows a part of the results. Most values come without repeats; read them as rough.

Key:
Assay in all cases: cell count relative to DMSO control; melanoma cells; higher = more viable cells
Details in all cases: library dose: low library concentration; 72 h
[1] = system: MZ2-MEL
[2] = system: MeWo
[3] = system: RPMI7951
[4] = system: RVH-421
[5] = system: SkMel28
[6] = system: SkMel2
[7] = system: SkMel30
[8] = system: SkMel5
[9] = system: UACC257
[10] = system: UACC62
[11] = system: WM115
[12] = system: WM1716
[13] = system: WM1745
[14] = system: WM3526
[15] = system: WM3619
[16] = system: WM451Lu
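Further: cell number obtained by counting DAPI-stained nuclei in high-throughput microscope images with image analysis software, screen run in 1,536-well plates.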

| SMILES | cell count [1] [%] | cell count [2] [%] | cell count [3] [%] | cell count [4] [%] | cell count [5] [%] | cell count [6] [%] | cell count [7] [%] | cell count [8] [%] | cell count [9] [%] | cell count [10] [%] | cell count [11] [%] | cell count [12] [%] | cell count [13] [%] | cell count [14] [%] | cell count [15] [%] | cell count [16] [%] |
| --- | --- | --- | --- | --- | --- | --- | --- | --- | --- | --- | --- | --- | --- | --- | --- | --- |
| CCN(CC)CCNC(=O)c1c(C)[nH]c(/C=C2\C(=O)Nc3ccc(F)cc32)c1C [sunitinib] + CN(C)S(=O)(=O)c1ccc2c(c1)/C(=C/c1cc3c([nH]1)CCCC3)C(=O)N2 [SU6656] (first compound 0.4 µM, partner dose 0.4 µM) | 105 | 91 | 103 | 106 | 66.4 | 95.7 | 92 | 94 | 88.2 | 94.2 | 75.5 | 124 | 82.1 | 64.8 | 113 | 82.9 |
| COc1cc([C@@H]2c3cc4c(cc3[C@@H](O[C@@H]3O[C@@H]5CO[C@@H](C)O[C@H]5[C@H](O)[C@H]3O)[C@H]3COC(=O)[C@H]23)OCO4)cc(OC)c1O [etoposide] + CCc1ccc(CCOc2ccc(CC3SC(=O)NC3=O)cc2)nc1 [pioglitazone] (first compound 0.02 µM, partner dose 2 µM) | 94.5 | 101 | 99.4 | 102 | 97.6 | 102 | 87.4 | 111 | 105 | 79.7 | 94.7 | 94.7 | 91.7 | 85.4 | 84.5 | 93 |
| CCN(CC)CCNC(=O)c1c(C)[nH]c(/C=C2\C(=O)Nc3ccc(F)cc32)c1C [sunitinib] + O=C(Nc1cccc(Cl)c1)Nc1ncc(CCNc2ncnc3ccsc23)s1 [SNS314] (first compound 0.4 µM, partner dose 0.0008 µM) | 106 | 83.3 | 98 | 117 | 77.9 | 110 | 78.8 | 108 | 71 | 73.6 | 64.7 | 139 | 83.4 | 88.5 | 150 | 93.5 |
| Cn1cnc2c(F)c(Nc3ccc(Br)cc3Cl)c(C(=O)NOCCO)cc21 [selumetinib] + CC(C)CCN1c2nc(Nc3cc(F)c(O)c(F)c3)ncc2N(C)C(=O)C1C [BID1870] (first compound 0.015 µM, partner dose 0.2 µM) | 89.4 | 81.1 | 103 | 84.9 | 99.8 | 60.3 | 66.3 | 104 | 76.4 | 67.1 | 79.3 | 91.1 | 81.5 | 89.9 | 66.3 | 93.9 |
| C[C@]1(O)C[C@@H](c2nc(-c3ccc4ccc(-c5ccccc5)nc4c3)c3c(N)nccn32)C1 + NC(=O)Nc1cc(-c2cccc(F)c2)sc1C(=O)N[C@H]1CCCNC1 [AZD7762] (first compound 0.4 µM, partner dose 0.02 µM) | 91.5 | 97.3 | 99.6 | 124 | 86.7 | 101 | 84.9 | 76.1 | 87.5 | 92.6 | 90.6 | 91.8 | 67.2 | 62.5 | 47.3 | 110 |
| CCN(CC)CCNC(=O)c1c(C)[nH]c(/C=C2\C(=O)Nc3ccc(F)cc32)c1C [sunitinib] + COc1cc(N2CCC(N3CCN(C)CC3)CC2)ccc1Nc1ncc(Cl)c(Nc2ccccc2S(=O)(=O)C(C)C)n1 [NVP-TAE684] (first compound 0.4 µM, partner dose 0.08 µM) | 111 | 81 | 88.8 | 129 | 95.2 | 103 | 65.8 | 87.1 | 72.8 | 87.3 | 94 | 118 | 68.5 | 52 | 131 | 90.5 |
| COc1cc([C@@H]2c3cc4c(cc3[C@@H](O[C@@H]3O[C@@H]5CO[C@@H](C)O[C@H]5[C@H](O)[C@H]3O)[C@H]3COC(=O)[C@H]23)OCO4)cc(OC)c1O [etoposide] + O=S(=O)(c1ccccc1)N(CC(F)(F)F)c1ccc(C(O)(C(F)(F)F)C(F)(F)F)cc1 [T0901317] (first compound 0.02 µM, partner dose 1.4 µM) | 91.9 | 69.7 | 78.6 | 93 | 89.4 | 93.6 | 86.6 | 89.9 | 76.4 | 80.4 | 92.9 | 85.4 | 84.6 | 92.8 | 114 | 129 |
| Cn1cnc2c(F)c(Nc3ccc(Br)cc3Cl)c(C(=O)NOCCO)cc21 [selumetinib] + CN(NC(=O)CC(=O)NN(C)C(=S)c1ccccc1)C(=S)c1ccccc1 [STA4783] (first compound 0.015 µM, partner dose 0.006 µM) | 80.2 | 72.3 | 128 | 68.6 | 98.1 | 78.2 | 55.8 | 111 | 85.5 | 69.3 | 79.5 | 87.4 | 36.1 | 79 | 52.8 | 121 |
| C[C@]1(O)C[C@@H](c2nc(-c3ccc4ccc(-c5ccccc5)nc4c3)c3c(N)nccn32)C1 + COc1cc2ncnc(Nc3ccc(Oc4ccccc4)cc3)c2cc1OC [SrcI1] (first compound 0.4 µM, partner dose 2 µM) | 85.1 | 91.8 | 106 | 114 | 88 | 88.9 | 71.6 | 103 | 96.1 | 110 | 112 | 126 | 66.8 | 84 | 92.1 | 113 |
| CCN(CC)CCNC(=O)c1c(C)[nH]c(/C=C2\C(=O)Nc3ccc(F)cc32)c1C [sunitinib] + COc1ccc(-c2ccc3c(N4CCOCC4)nc(N4C[C@@H](C)O[C@@H](C)C4)nc3n2)cc1CO [KU0063794] (first compound 0.4 µM, partner dose 0.02 µM) | 110 | 86.1 | 116 | 123 | 81.8 | 106 | 61.2 | 99.5 | 78.4 | 80.3 | 83.4 | 127 | 80.1 | 73.3 | 111 | 102 |
| CCN(CC)CCNC(=O)c1c(C)[nH]c(/C=C2\C(=O)Nc3ccc(F)cc32)c1C [sunitinib] + O=c1cc(-c2cccc3c2Sc2ccccc2S3)oc(N2CCOCC2)c1 [KU55933] (first compound 0.4 µM, partner dose 1 µM) | 110 | 81.2 | 104 | 108 | 77.7 | 103 | 62.9 | 99.3 | 82.2 | 75.6 | 86.6 | 148 | 56 | 69.9 | 144 | 92.1 |
| CCN(CC)CCNC(=O)c1c(C)[nH]c(/C=C2\C(=O)Nc3ccc(F)cc32)c1C [sunitinib] + O=S(=O)(c1ccccc1)N(CC(F)(F)F)c1ccc(C(O)(C(F)(F)F)C(F)(F)F)cc1 [T0901317] (first compound 0.4 µM, partner dose 1.4 µM) | 100 | 83 | 98 | 107 | 88 | 101 | 63.9 | 85.3 | 110 | 80.7 | 96.5 | 112 | 82.7 | 86.2 | 105 | 91.5 |
| CCN(CC)CCNC(=O)c1c(C)[nH]c(/C=C2\C(=O)Nc3ccc(F)cc32)c1C [sunitinib] + CC(C)(C)c1cnc(CSc2cnc(NC(=O)C3CCNCC3)s2)o1 [SNS-032] (first compound 0.4 µM, partner dose 0.01 µM) | 104 | 74.7 | 108 | 102 | 85.3 | 99.4 | 72.8 | 101 | 58.3 | 61.3 | 87.5 | 116 | 69.9 | 116 | 89.4 | 104 |
| Cn1cnc2c(F)c(Nc3ccc(Br)cc3Cl)c(C(=O)NOCCO)cc21 [selumetinib] + O=C(O)C(=O)Nc1sc2c(c1C(=O)O)CCNC2 [TCS401] (first compound 0.015 µM, partner dose 1.66667 µM) | 94.2 | 93.2 | 120 | 110 | 81.3 | 83.6 | 83.5 | 103 | 98.8 | 66.8 | 90.3 | 111 | 95.7 | 75.1 | 94.1 | 114 |
| COc1cc([C@@H]2c3cc4c(cc3[C@@H](O[C@@H]3O[C@@H]5CO[C@@H](C)O[C@H]5[C@H](O)[C@H]3O)[C@H]3COC(=O)[C@H]23)OCO4)cc(OC)c1O [etoposide] + COc1cc2c(Oc3ccc4[nH]c(C)cc4c3F)ncnc2cc1OCCCN1CCCC1 [cediranib] (first compound 0.02 µM, partner dose 0.4 µM) | 88.8 | 91.8 | 115 | 101 | 94.8 | 98.3 | 105 | 99.3 | 93.6 | 76.1 | 101 | 99.5 | 98.9 | 87.1 | 86.9 | 83.9 |
| CCN(CC)CCNC(=O)c1c(C)[nH]c(/C=C2\C(=O)Nc3ccc(F)cc32)c1C [sunitinib] + Cc1cc([N+](=O)[O-])ccc1NS(=O)(=O)c1cc(Cl)ccc1Cl [FH535] (first compound 0.4 µM, partner dose 1 µM) | 95.4 | 88.5 | 98.9 | 87.1 | 71.2 | 118 | 62.3 | 68.6 | 74.4 | 74.9 | 92 | 117 | 87.7 | 79.1 | 104 | 92.6 |
| COc1cc([C@@H]2c3cc4c(cc3[C@@H](O[C@@H]3O[C@@H]5CO[C@@H](C)O[C@H]5[C@H](O)[C@H]3O)[C@H]3COC(=O)[C@H]23)OCO4)cc(OC)c1O [etoposide] + O=C(CCCCCCC(=O)Nc1ccccc1)NO [vorinostat] (first compound 0.02 µM, partner dose 0.08 µM) | 91.3 | 96 | 97.7 | 91.1 | 69.6 | 96.1 | 90.3 | 99.2 | 83.1 | 84.5 | 89.7 | 105 | 110 | 96.9 | 94.2 | 77.7 |
| Cn1cnc2c(F)c(Nc3ccc(Br)cc3Cl)c(C(=O)NOCCO)cc21 [selumetinib] + CC(C)(C)c1cnc(CSc2cnc(NC(=O)C3CCNCC3)s2)o1 [SNS-032] (first compound 0.015 µM, partner dose 0.01 µM) | 80.3 | 87 | 91.6 | 91.2 | 95.3 | 73.6 | 87.4 | 124 | 99.1 | 73.9 | 90.3 | 109 | 94.9 | 70.5 | 78.2 | 111 |
